Source: PubChem BioAssay AID504832 (National Center for Advancing Translational Sciences (NCATS), 2011)
About 18,000 (5.8%) of roughly 310,000 compounds were called active. Inconclusive means that the source gave no clear call. Such entries were picked first, then a sample of the others. Calls follow the shape of the dose curve; as a rule, active = well fitted inhibition curve with a large enough effect; inconclusive = small, poorly fitted or top-dose-only effect, or another doubt; inactive = no such curve, though single readings can be large or run the other way. Potencies of inconclusive entries are left out as doubtful fits.

Assay: Primary qHTS for delayed death inhibitors of the malarial parasite plastid, 48 hour incubation
Conditions: P. falciparum luciferase growth in erythrocytes; series mostly up to 28.7 µM; activity change, negative = inhibition: at the top concentration
Method in brief: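 Cell-based growth assay: transgenic P. falciparum expressing firefly luciferase, cultured in red cells within RPMI 1640 containing 0.5% w/v Albumax, 24 mM bicarbonate and gentamycin. A drop in luciferase activity indicates inhibition.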
% is scaled to controls: 0 for no effect and ±100 for the full control effect; potency is read from the fitted curve at half-maximal effect; tags tell the direction and shape of the fitted curve.

SMILES | activity change, negative = inhibition | Potency
CN(Cc1ccccc1)c1ccc(C(=O)O)cc1[N+](=O)[O-] | inactive: 0.231% | 
Cc1nc2oc3ccccc3c(=O)c2cc1C(=O)O | inactive: 40.1% | 
COc1ccc(C2CC(=O)C=C(NNS(=O)(=O)c3ccc(C)cc3)C2)cc1 (configuration not stated) | inactive: 11.9% | 
COc1ccc(-c2[nH]ncc2CN2CCC(N3CCSCC3)CC2)c(F)c1 | inactive: -4.85% | 
Cc1ccc(-c2nc(CSCC(=O)N3CCCC3)c(C)o2)cc1 |  | inconclusive [inhibitor, full curve, poor fit]
COn1c(SC2CCCCC2)nc2ccccc2c1=O |  | inconclusive [inhibitor, single point]
Cc1ccc(N2CC(C(=O)Nc3ccccc3OC(F)F)CC2=O)cc1 (configuration not stated) |  | inconclusive [inhibitor, single point]
COc1ccc(C2c3[nH]c4ccccc4c3C[C@H]3C(=O)N(CC(C)C)CC(=O)N23)c(OC)c1 (some centres not stated) |  | inconclusive [inhibitor, partial curve]
CCC(=O)NC(c1ccccc1)c1c(O)ccc2ccccc12 (configuration not stated) |  | active: 9.28 µM
CCc1cc(CNC(=O)c2cc(COc3ccc(C)nc3)on2)on1 | inactive: -2.4% | 
COc1cc2c(cc1OC)C(C)=NC1(CCCCC1)C2 |  | inconclusive [inhibitor, single point]
O=P(O)(O)c1ccccc1OCCOCCOCCOCCOc1ccccc1P(=O)(O)O | inactive: 123% | 
CCOc1ccc(Oc2ccccc2NC(=O)CSCC(=O)Nc2cc(C)on2)cc1 |  | inconclusive [inhibitor, single point]
CCOC(=O)C(C)Oc1c(C(=O)OC)sc2ncccc12 (configuration not stated) |  | inconclusive [inhibitor, full curve, poor fit]
C=CCn1c(O)c(C(C)=NC2CCN(Cc3ccccc3)CC2)c(=O)[nH]c1=O | inactive: 0.286% | 
CCOC(=O)N1CCN(c2nc(-c3ccccc3)c3cc(C)ccc3n2)CC1 |  | active: 10.4 µM
CCOC(=O)N1CCC(NC(=O)c2ccc3c(c2)N=C(CC)c2cc(C)ccc2S3)CC1 |  | inconclusive [inhibitor, partial curve]
O=C(O)c1ccc(/C=N/NC(=O)C(O)(c2ccccc2)c2ccccc2)cc1 | inactive: 16.1% | 
Cc1ccc(Cn2c(C)nc3c(c2=O)c2nc4ccccc4nc2n3Cc2ccco2)cc1 |  | active: 5.86 µM
Cc1cccc(NC(=O)CNC(=O)Cn2cc(C(F)(F)F)cc(Cl)c2=O)c1C |  | inconclusive [inhibitor, single point]
CCCN(CCC)S(=O)(=O)c1cccc(-c2csc(C)n2)c1 |  | active: 10.4 µM
Cn1nnc(NC(=S)NC(=O)c2cc(Cl)ccc2Cl)n1 |  | active: 8.28 µM
Clc1ccc(/C=N/N2CCN(Cc3ccccc3)CC2)cc1 | inactive: 33.8% | 
COc1ccc(-c2cc(C(F)(F)F)nc(SCC(=O)Nc3cc(C)on3)n2)cc1OC |  | inconclusive [inhibitor, single point]

SMILES | activity change, negative = inhibition | Potency
CSc1nncc(/C(C)=N\Nc2cccc(C)c2)n1 | inactive: 15% | 
O=C(c1ccc2c(=O)n(-c3ccccc3)c(=S)[nH]c2c1)N1CCN(c2ccccc2)CC1 |  | inconclusive [inhibitor, single point]
COc1ccc2c(c1)c(C(=O)CNc1nc(C)cs1)c(C)n2C |  | inconclusive [inhibitor, single point]
COc1ccc(NC(=O)CSc2ncc(-c3ccc(F)cc3)n2Cc2ccco2)cc1 |  | active: 14.7 µM
Cc1ccc(NC(=O)N2CCCC2C(=O)NCC2CCCCC2)cc1 (configuration not stated) | inactive: 14.8% | 
CC(C)C[C@@H](CSc1ccc(Br)cc1)N1CCN(CCc2ccccc2)CCC1=O |  | inconclusive [inhibitor, single point]
CSc1nnc2c(n1)OC(C)N(C(=O)c1ccccc1)c1ccccc1-2 (configuration not stated) |  | inconclusive [inhibitor, single point]
CC(C)(C)c1nnc2sc(SCC(=O)N3CCc4ccccc43)nn2c1=O |  | inconclusive [inhibitor, single point]
Cc1cc(Br)ccc1NC(=O)CN(C)C(=O)COc1cccc2c1OC(C)(C)C2 |  | inconclusive [inhibitor, partial curve, poor fit]
CNC(=O)C1CC(=O)N(Cc2ccccc2)C(=Nc2ccc(OC)cc2)S1 (configuration not stated) |  | inconclusive [inhibitor, full curve, poor fit]
O=S(=O)(Nc1ncccn1)c1ccc(NC(=S)NCCc2ccccc2)cc1 |  | inconclusive [inhibitor, partial curve, poor fit]
Cc1cccc(/C=N/NC(=O)c2ccc(NC(=O)c3ccccc3C)cc2)n1 | inactive: -0.332% | 
CCc1sc(C(=O)Nc2nc(C)cs2)cc1C | inactive: -84.4% | 
CC1CCN(c2c(NCC3CCC(C(=O)NC4CCCCCC4)CC3)c(=O)c2=O)CC1 (configuration not stated) |  | inconclusive [inhibitor, single point]
O=S(=O)(c1cnccc1N1CCN(/N=C/c2ccccc2)CC1)N1CCCCC1 |  | inconclusive [inhibitor, partial curve, poor fit]
CCNc1nc(NCC)n2c(SCC(=O)c3ccccc3F)nnc2n1 |  | inconclusive [inhibitor, single point]
CCCn1c(C2CCCN2c2nc(C)cs2)nc2cc(Cl)c(Cl)cc21 (configuration not stated) |  | inconclusive [inhibitor, partial curve, poor fit]
COc1ccc(-c2oc3ccccc3c(=O)c2OC(C)=O)cc1 |  | inconclusive [inhibitor, single point]
Cc1ccc(C)c(N2CCN(C(=O)c3cc4c(C)nc5ccccc5c4o3)CC2)c1 |  | inconclusive [inhibitor, single point]
CCC(C)(C(=O)NC1CCCCC1)N(Cc1ccco1)C(=O)CNC(=O)c1ccccc1 (configuration not stated) |  | inconclusive [inhibitor, partial curve, poor fit]
O=C(O)COc1ccccc1/C=N/NC(=O)CSc1nc2ccccc2n1Cc1ccc(Cl)cc1 |  | active: 14.7 µM
Cc1ccc(CNC(=O)CN(C)C2=NS(=O)(=O)c3ccccc32)cc1 | inactive: -2.96% | 
Cc1cccc(N(O)C(=O)Nc2cccc(Cl)c2)c1 |  | inconclusive [inhibitor, single point]
O=c1cc(-c2ccncc2)oc2c1ccc1ccccc12 |  | inconclusive [inhibitor, single point]

SMILES | activity change, negative = inhibition | Potency
Clc1ccc(-[n+]2c(-c3cccc(Br)c3)[nH]c3nc4ccccc4nc32)cc1 |  | inconclusive [inhibitor, partial curve]
O=C1COc2ccc(NC(=O)c3ccccc3C(=O)O)cc2N1 | inactive: -0.166% | 
COc1ccc(-c2nc(SCC(=O)Nc3cccc(S(N)(=O)=O)c3)n[nH]2)cc1 | inactive: 30.8% | 
CC(=C/c1ccccc1)/C=N/NC(=O)c1cc(C)oc1C |  | inconclusive [inhibitor, single point]
Cc1ccc(Nc2nc(-c3ccc(C)cc3)c(CC(=O)O)s2)cc1 | inactive: 16.7% | 
O=C(c1ccccc1Sc1ccccc1[N+](=O)[O-])N1CCCCC1 |  | inconclusive [inhibitor, single point]
COc1ccc(C)cc1NC(=O)c1cc(S(=O)(=O)N2CCOCC2)cn1C | inactive: -20.5% | 
Nc1cc(Cl)ccc1Oc1ccccc1 | inactive: 57.5% | 
CCCCCC(=O)Nc1cccc(C2=NOC3(C2)C[C@@H](C(N)=O)N(C(=O)Cc2ccc([N+](=O)[O-])cc2)C3)c1 (some centres not stated) |  | inconclusive [inhibitor, single point]
C=Cn1c(C(=O)O)ccc1-c1ccc(CC)cc1 |  | inconclusive [inhibitor, full curve, poor fit]
Cc1ccc(CN(c2ccc(C(=O)NCc3ccc4c(c3)OCO4)cc2)S(C)(=O)=O)cc1 | inactive: -29.4% | 
O=C(O)c1ccc(-n2ncc3c2/C(=C/c2cccc([N+](=O)[O-])c2)CC3)cc1 | inactive: 80.5% | 
O=C(CSc1nnc(NC(=O)c2ccccc2F)s1)NC1CC1 | inactive: 54.4% | 
Cc1cc(C)c(S(=O)(=O)NCC2CCC(C(=O)NCCCN3CCC(C)CC3)CC2)c(C)c1 (configuration not stated) |  | active: 9.28 µM
C/C(=N\Nc1ccc(S(=O)(=O)Nc2ccccc2)cc1[N+](=O)[O-])c1ccncc1 |  | active: 10.4 µM
CCN(CC(=O)Nc1ccc(OC)cc1)C(=O)c1ccccc1Sc1ccccc1C#N |  | inconclusive [inhibitor, single point]
COCCN(C(=O)c1ccccc1)c1nc(-c2ccc(OC)cc2)cs1 |  | inconclusive [inhibitor, partial curve, poor fit]
Cc1ccc(NC(=O)C2CCCN2C(=O)OCc2ccccc2)c(O)c1 (configuration not stated) |  | inconclusive [inhibitor, single point]
Cc1nn(-c2ccccc2)c(N)c1C(c1ccccc1)c1c(C)nn(-c2ccccc2)c1N |  | inconclusive [inhibitor, partial curve]
COc1ccc(NC(=O)CC(C)=O)c(OC)c1 | inactive: -24.2% | 
O=C(/C=C/c1cccc(Cl)c1)NCc1cccs1 | inactive: 6.84% | 
CCOC(=O)N1CCC(N2CCCC(C(=O)c3cccc(OC)c3)C2)CC1 (configuration not stated) |  | inconclusive [inhibitor, partial curve, poor fit]
COc1cc(CCCN2CCNC[C@@H]2Cc2ccc(O)cc2)cc(OC)c1OC |  | inconclusive [inhibitor, single point]
NC(=O)C1CCCN(Cc2ccc3ccccc3c2)C1 (configuration not stated) |  | inconclusive [inhibitor, partial curve, poor fit]
